In paper PMC8326115:
Results are given in words; binding and its absence hold for the method and conditions named. For some of these results: In cells and extracts the contact can be indirect. Some results given as binding are weak or reduced against the parent protein; the word gives no strength. For some of these results: Sequences can lack the tags named with a protein.

Chains of the proteins cited; added tags and fusions are not shown.
UniProt Q16665: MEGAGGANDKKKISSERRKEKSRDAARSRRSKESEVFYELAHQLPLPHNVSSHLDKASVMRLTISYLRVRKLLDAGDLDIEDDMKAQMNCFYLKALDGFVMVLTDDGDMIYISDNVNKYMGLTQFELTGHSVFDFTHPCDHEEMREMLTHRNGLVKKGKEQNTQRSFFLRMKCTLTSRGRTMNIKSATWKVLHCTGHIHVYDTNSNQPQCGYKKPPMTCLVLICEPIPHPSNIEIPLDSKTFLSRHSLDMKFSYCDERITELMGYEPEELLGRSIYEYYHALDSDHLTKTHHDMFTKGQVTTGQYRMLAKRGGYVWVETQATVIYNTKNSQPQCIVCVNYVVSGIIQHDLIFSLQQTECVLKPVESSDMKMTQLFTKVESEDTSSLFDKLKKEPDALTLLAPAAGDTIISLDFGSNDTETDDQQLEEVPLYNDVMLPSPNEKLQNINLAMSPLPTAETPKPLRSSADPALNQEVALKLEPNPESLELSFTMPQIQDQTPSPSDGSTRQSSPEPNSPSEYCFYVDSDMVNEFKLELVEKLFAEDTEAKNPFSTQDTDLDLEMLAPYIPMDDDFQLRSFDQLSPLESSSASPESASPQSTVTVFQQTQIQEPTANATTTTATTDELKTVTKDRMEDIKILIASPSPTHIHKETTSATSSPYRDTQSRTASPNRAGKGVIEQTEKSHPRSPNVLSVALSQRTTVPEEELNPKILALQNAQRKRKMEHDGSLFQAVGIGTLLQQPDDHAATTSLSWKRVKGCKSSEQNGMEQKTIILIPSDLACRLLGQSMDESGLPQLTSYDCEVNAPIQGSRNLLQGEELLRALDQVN
UniProt P46937: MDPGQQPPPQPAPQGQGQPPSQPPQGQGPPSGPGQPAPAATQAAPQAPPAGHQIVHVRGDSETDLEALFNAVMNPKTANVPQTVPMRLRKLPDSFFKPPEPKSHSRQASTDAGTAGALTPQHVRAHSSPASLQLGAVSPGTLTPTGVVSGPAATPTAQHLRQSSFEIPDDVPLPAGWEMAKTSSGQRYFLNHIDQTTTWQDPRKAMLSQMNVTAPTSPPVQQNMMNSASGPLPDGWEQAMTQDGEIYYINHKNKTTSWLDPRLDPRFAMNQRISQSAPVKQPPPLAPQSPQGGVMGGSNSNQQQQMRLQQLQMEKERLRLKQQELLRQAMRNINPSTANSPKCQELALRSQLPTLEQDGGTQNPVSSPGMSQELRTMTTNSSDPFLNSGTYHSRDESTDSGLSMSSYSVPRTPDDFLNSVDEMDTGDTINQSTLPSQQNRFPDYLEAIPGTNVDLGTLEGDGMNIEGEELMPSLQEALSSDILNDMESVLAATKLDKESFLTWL

Experiments:
His-tagged ULK1 = molecular target: T1, His-tagged ULK1 (UniProt O75385); assay: pull-down; 100 ng His fusion protein immobilised on Ni-NTA-sepharose beads, incubated overnight at 4 °C with nuclear lysates from hypoxia-stimulated cells expressing Flag-tagged wild-type YAP; blot with anti-Flag; only the target purified
T1 sequence: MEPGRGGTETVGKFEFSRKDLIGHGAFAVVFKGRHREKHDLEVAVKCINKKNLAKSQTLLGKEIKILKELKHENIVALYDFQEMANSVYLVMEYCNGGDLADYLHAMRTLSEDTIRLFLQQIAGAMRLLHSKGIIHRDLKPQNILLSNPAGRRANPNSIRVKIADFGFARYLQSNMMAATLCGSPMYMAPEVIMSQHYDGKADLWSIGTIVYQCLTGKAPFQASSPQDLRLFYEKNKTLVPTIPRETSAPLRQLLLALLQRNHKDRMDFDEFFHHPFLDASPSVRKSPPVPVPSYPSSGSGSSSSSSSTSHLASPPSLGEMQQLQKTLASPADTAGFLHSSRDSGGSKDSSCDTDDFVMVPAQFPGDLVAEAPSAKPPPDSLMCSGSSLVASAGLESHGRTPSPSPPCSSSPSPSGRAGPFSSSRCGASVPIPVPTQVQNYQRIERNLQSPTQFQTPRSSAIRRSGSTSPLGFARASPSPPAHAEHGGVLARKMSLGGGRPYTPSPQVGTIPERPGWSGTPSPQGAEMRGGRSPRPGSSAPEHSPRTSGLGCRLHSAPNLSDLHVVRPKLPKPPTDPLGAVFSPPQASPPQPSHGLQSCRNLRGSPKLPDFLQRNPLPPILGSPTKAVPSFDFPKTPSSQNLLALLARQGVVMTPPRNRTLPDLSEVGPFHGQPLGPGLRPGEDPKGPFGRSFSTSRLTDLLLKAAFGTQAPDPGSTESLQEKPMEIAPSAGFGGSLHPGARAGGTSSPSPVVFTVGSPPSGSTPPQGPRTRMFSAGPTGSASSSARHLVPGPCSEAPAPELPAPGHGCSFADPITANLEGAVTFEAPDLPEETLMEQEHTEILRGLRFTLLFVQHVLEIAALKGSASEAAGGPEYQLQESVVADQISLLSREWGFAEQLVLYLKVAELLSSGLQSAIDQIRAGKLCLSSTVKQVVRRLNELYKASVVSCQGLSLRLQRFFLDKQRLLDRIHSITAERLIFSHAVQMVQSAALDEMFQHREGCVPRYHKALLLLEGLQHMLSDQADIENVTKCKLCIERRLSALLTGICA

His-tagged ULK2 = molecular target: T2, His-tagged ULK2 (UniProt Q8IYT8); assay: as above
T2 sequence: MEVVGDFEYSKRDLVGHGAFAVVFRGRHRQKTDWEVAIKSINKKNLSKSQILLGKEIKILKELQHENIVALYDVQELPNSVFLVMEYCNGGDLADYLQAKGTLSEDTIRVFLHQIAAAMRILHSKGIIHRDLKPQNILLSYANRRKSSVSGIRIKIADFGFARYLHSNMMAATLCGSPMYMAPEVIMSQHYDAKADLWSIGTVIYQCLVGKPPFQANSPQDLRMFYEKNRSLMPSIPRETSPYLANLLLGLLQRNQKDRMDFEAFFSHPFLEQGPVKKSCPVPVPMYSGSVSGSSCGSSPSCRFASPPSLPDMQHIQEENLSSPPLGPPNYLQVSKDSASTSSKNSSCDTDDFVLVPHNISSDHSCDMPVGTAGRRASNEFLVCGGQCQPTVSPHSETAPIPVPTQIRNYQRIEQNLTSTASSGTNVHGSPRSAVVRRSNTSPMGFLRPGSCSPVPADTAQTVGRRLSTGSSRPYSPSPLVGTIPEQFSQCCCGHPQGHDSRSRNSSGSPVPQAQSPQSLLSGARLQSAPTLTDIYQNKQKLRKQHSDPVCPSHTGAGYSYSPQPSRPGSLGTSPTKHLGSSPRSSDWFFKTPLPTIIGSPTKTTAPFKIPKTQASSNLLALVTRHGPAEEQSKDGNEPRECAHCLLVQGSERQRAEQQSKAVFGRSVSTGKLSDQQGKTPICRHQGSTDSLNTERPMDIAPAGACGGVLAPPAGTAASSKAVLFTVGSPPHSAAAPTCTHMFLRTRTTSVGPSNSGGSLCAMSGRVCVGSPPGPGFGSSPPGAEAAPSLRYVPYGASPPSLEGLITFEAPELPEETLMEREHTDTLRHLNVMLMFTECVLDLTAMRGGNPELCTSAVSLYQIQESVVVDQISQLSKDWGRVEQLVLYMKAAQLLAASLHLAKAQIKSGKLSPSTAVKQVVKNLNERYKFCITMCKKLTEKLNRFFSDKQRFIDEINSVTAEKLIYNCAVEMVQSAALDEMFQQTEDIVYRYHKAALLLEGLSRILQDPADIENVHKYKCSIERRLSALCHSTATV

[1] = molecular target: hypoxia-inducible factor 1α (HIF-1α), endogenous (human (endogenous in SW-1990)) (UniProt Q16665); assay: cell-free assay; nuclear extraction from SW-1990 cells expressing Flag-tagged YAP (wild type or S227A) incubated with or without purified ULK1; binding of YAP to HIF-1α read out (Figure S2H)
[2] = molecular target: hypoxia-inducible factor 1α (HIF-1α), endogenous (human (endogenous in SW-1990)) (UniProt Q16665); assay: cell-free assay; as a2, with purified ULK1 and CIP (calf intestinal phosphatase) treatment (Figure S2H)
[3] = molecular target: hypoxia-inducible factor 1α (HIF-1α), endogenous (human (endogenous in SW-1990)) (UniProt Q16665); assay: co-IP; nuclear extraction of hypoxia-stimulated SW-1990 cells transfected with scrambled, ULK1, ULK2 or ULK1/2 shRNA; HIF-1α immunoprecipitated, blot with anti-YAP; endogenous levels
[4] = molecular target: T3, Unc-51 like kinase 1 (ULK1), endogenous (human (endogenous in SW-1990)) (UniProt O75385); assay: co-IP; nuclear extractions of hypoxia-stimulated SW-1990 cells, endogenous proteins; YAP precipitated and blotted for ULK1, and reciprocally ULK1 precipitated and blotted for YAP
T3 sequence: T1 sequence

[5] = molecular target: T3, Unc-51 like kinase 1 (ULK1), endogenous (human (endogenous in SW-1990)); assay: co-IP; as a4, SW-1990 cells without hypoxia stimuli

For “Flag-tagged wild-type YAP (from UniProt P46937 1-504)”, the binding (His-tagged ULK1) was “binds”, the binding (His-tagged ULK2) was “binds” and the binding [1] was “binds”. The binding [2] was “no binding (condition: with CIP treatment)”.
“yes-associated protein (YAP), endogenous (from UniProt P46937 1-504)” was tested, and the binding [3] was “binds”, the binding [4] was “binds” and the binding [5] was “no binding (condition: without hypoxia stimuli)”.
